The source gives no read counts; variants with many changes may rest on few reads.
B1: OR4K15 (parent)
chain: GUUAACGGUCAUAGGCCAUGGAAACUAGGAGCACCAUUUCGCUGCCAGUGAAGAAAUGAACAAAGAAAAUCUGGGCCAGGCAGGCAUCAAAAGAAAUAGUCUUGCGCUCAACCAGAAAGUCUGUAAUCAUUUUAAGGGUA

Variants of: B1
Assay: self-cleavage, relative activity (ratio to wild type); higher = more cleavage; in vitro, sequencing; the parent is a self-cleaving ribozyme

Row | Variant | self-cleavage
1 | A52U U103C U127C | 0.57
2 | A52G U103C A134G | 1.67
3 | A54G A55G A56G A89U U130C | 0.78
4 | A55G A92G A111G | 0.02
5 | A52G A90C U131C | 1.34
6 | A55U A63G A129G | 1.8
7 | A52G A68G A78U A94G A134G | 0.23
8 | A55G A63G A67U A89G | 0.86
9 | A56G A60G A68G U102C | 1.13
10 | A55G A67G U127C | 0.73
11 | A56G A62U U139C | 2.12
12 | A52G A91G U131C | 0.51
13 | A56G A59G C113A U130C | 0.04
14 | A52G A69G A134G | 1.02
15 | A55G A78G A89G A96U | 0.33
16 | A55C U70C U131C | 0.27
17 | A54G A59G A94G C101A A117G A129G | 0.05
18 | A54G A96G U108C | 0.01
19 | A52G A95U A117G | 2.86
20 | A52G U103A U127C | 0.6
21 | A52G A59G U127C | 1.51
22 | A55G U102C A135U | 1.66
23 | A55U A82G A135U | 0.58
24 | A52G A91G A92G U122C U130C | 0.6

Row | Variant | self-cleavage
25 | A52G A66G A94U A114G U130C | 0.1
26 | A54G U57C A63G G75A A86G | 0.17
27 | A52G A62U A63G U127C | 0.59
28 | A54U A66G A116G U124C | 0.09
29 | A52G A82G A89U U122C | 0.59
30 | A55G A68G A69U A90G G93A U132A | 0.83
31 | A55U A56G A95G U132C | 2.03
32 | A52G U57A U130C | 0.77
33 | A52G A59U A86G A98G | 0.15
34 | A55G U87C A111U | 0.02
35 | G53A A111G A116C | 0
36 | A52U G73A A92G U102C | 0.27
37 | A55G A64G A114U | 0.05
38 | A52G U72C A117G | 0.3
39 | A54G A78G A111G U130C | 0
40 | A52G U131C U132C | 1.53
41 | A55G G58A A67G U72A U122A | 0.11
42 | A54U U97A U102G U103G A118G | 0.02
43 | A54G C76U A92G U132G | 0.06
44 | A52U A94G A95G | 2.05
45 | G53A A62G A67G A78U A135G | 0.41
46 | A52G A59G A91G U122C | 0.92
47 | A52G A95G U133C | 2.24
48 | A55G A68G A86U G123A | 2.2

Row | Variant | self-cleavage
49 | A52G A82C A117G | 0.31
50 | A55G U72C A140U | 0.27
51 | A54C A78U A126G | 0.11
52 | A52G A63G U87C A92G A126U | 0.92
53 | A52G U100G C101A C109U | 0.02
54 | A54G A86U U130C | 1.72
55 | A56G A64G U108A | 0.03
56 | A56G A64G U108C | 0.04
57 | A52G U57A A67G A135G | 1.81
58 | A52G A64G U120C A125G | 0.25
59 | A54C A69U A90U | 2.25
60 | A52G A69G A94G U108C | 0.01
61 | A55G C105U A116G | 0.02
62 | A54G G84C U132C | 0.47
63 | A56C U70C A91G U103A | 0.12
64 | A55U U70C U72C U87C | 0.17
65 | G53A A59G A89G A111U U139G | 0.05
66 | A52G U87C U131C | 1.53
67 | A54G A60G U130C | 0.85
68 | A52G U72C G73U A90G U108C | 0.02
69 | A52G U70A U124C | 1.14
70 | A56G A60G A78U A98U | 0.76
71 | A55G A60C A67G | 1.16
72 | A52G A68G C113A U139A | 0.05

Row | Variant | self-cleavage
73 | A55G A90U A111G A116G A134G | 0
74 | A55G A89G U108C | 0.01
75 | A52G A67G A91G | 1.23
76 | A54G U87C A116G | 0.35
77 | A52G U97C G115A | 0.03
78 | A52G U70C A118U | 0.52
79 | A55G U70G U132A | 0.84
80 | A55G A92G U102C A135U | 0.86
81 | A54G U72C A111G U120C | 0.07
82 | A54G U108C G138A | 0.02
83 | A52G A86G A134G | 1
84 | A55G U57C A69G | 0.74
85 | A52U A86U A89G A94G | 2.59
86 | A55G A82U A114G | 0.07
87 | A52G A116G U127C | 0.39
88 | A52G A63G U131C | 0.89
89 | A52U A62G U103C U132A | 0.31
90 | A54G A92G U131C | 1.26
91 | A52G A68G U87C U97C A126G | 0.38
92 | A55G U122C A129G U132C | 0.55
93 | A52G A78G A116G | 0.17
94 | A55G A92G A135G | 1.65
95 | A55G U57C U97C | 0.61
96 | A55G A59U U127A | 1.79

Row | Variant | self-cleavage
97 | A54C A56G U120C | 0.54
98 | A55G A69U A82U A95G A126U | 0.29
99 | A54C A64G U97A | 0.75
100 | A54G A62G C77U A117G | 2.36
101 | A55G A66G U72C A96G U108C A117G | 0.02
102 | A55G A110G U127A | 0.32
103 | A52U A68G U72C A98U U108A A140U | 0.02
104 | A52U A59G U127C | 0.42
105 | A52G A59U U108A | 0.01
106 | A54G U108C A125G | 0
107 | A55G A91G A95G U124C C128U | 0.87
108 | A52G G53A A89G | 2.36
109 | A54G A94G A114G | 0.22
110 | A55G A82U A140U | 0.1
111 | A52G A66G A69U U87A A98G A118G | 0.5
112 | A52G U87C U97C U100C | 1.93
113 | A55G A89U U108C | 0.01
114 | A56G A62U U70C | 0.24
115 | A55G U130A A135G | 0.33
116 | A54G U122A U127C U130C | 0.98
117 | A54U G83A U87C A118G | 0.98
118 | A54G A68G U108A | 0.01
119 | A54U A56G A129G | 0.62
120 | A52G A60G A62G A82G A94G | 0.32

Row | Variant | self-cleavage
121 | A55G A64G A116G | 0.68
122 | A54G A114U A118G | 0.07
123 | A54U A66G A135G | 2.06
124 | A52G A126G A129U | 0.79
125 | A52G U70C A90C U122C U131A U139C | 0.11
126 | A52U A94G U130G | 0.89
127 | A55G A98U A134G | 1.37
128 | A52G A62U A89G U108C | 0.03
129 | A52G U70C U120C U122C | 0.18
130 | A52G A91G A117G | 1.76
131 | A52G U70C A98U G106A U131C | 0.01
132 | A54U A67U U108C | 0.03
133 | A52G A110G A134G | 0.1
134 | A55G A68G A69G A78G | 0.45
135 | A52G A78G A111G | 0.01
136 | A55G A66C A67G A69G U72A A92G U108C | 0.01
137 | A55G U57C A64G | 0.52
138 | A52G U70A A117C | 0.16
139 | A55U A116G A135U | 0.93
140 | A55G A60G A69U A117G A126G | 0.58
141 | A55G A117G U131C | 2.29
142 | A52G A64G A82G A89G | 1.05
143 | A52G A64G A78U | 0.37
144 | A54G A69G U100C | 1.55

Row | Variant | self-cleavage
145 | A52G A63C U131C | 1.4
146 | A54G G79A A90G U97C A98U | 0.09
147 | A55G A69G A86G | 1.41
148 | A54G A92G A114G A135G | 0.14
149 | A55U U72C G106A | 0.02
150 | A52G A92G A118U | 0.51
151 | A55G U102C A111G U133C | 0.01
152 | A54G A89G A96G U108A A110G | 0.03
153 | A55G A59G A90U | 1.6
154 | A52G A59U A117G | 2.12
155 | A52G A69G A129U | 1.66
156 | A54U A82U U127C | 0.09
157 | A55C U57C A69G U72C | 0.21
158 | A52U A67G A94U | 1.35
159 | A54G G93U U131C | 2
160 | A54U U70C A125G A126G | 0.1
161 | A54G A86G A117G | 1.07
162 | A55G A68U U120C | 0.82
163 | A55G A63G A82G | 0.77
164 | A55G A63G A82U | 0.23
165 | A52G U120A U139C | 2.03
166 | A55G A68G U122A | 1.29
167 | A52G A66G A135U | 1.75
